Assay results as given in patent US11066414B2, “Cot modulators and methods of use thereof” (Gilead Sciences, Inc., priority 2015, dated 2021).

Assays:
[1] = tested on: TNFα; test: Cot Monocyte TNFα Cell Based Assay; details: read-out: EC50 TNF, LPS-stimulated human monocytes
[2] = target: Human Cot (Homo sapiens (Human), UniProt P41279); test: High Throughput Cot Biochemical Assay; details: read-out: IC50 HTRF; Cot HTRF (TR-FRET) biochemical assay
Sequence of Human Cot (P41279 30-397): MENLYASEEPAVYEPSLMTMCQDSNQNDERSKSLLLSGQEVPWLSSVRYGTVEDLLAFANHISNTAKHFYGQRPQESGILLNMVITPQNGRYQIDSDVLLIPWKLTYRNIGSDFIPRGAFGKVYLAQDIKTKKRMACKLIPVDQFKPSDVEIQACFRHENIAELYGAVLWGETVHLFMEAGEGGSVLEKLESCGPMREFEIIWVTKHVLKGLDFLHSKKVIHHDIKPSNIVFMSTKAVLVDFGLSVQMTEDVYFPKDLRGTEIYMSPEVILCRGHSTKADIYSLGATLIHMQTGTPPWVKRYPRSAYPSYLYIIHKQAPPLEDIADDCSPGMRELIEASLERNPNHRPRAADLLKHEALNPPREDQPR

Structure (SMILES)	EC50 [1]	IC50 [2]
N#CCC[C@@H](Nc1c(C#N)cnc2c(Cl)cc(NC(c3cn(C4CC4)nn3)c3cccnc3F)cc12)c1ccccc1 (stereo partly drawn) [Example 71, 8-chloro-4-(((R)-3-cyano-1-phenyl-propyl)amino)-6-(((1-cyclopropyl-1H-1,2,3-triazol-4-yl)(2-fluoropyridin-3-yl)methyl-d)amino)quinoline-3-carbonitrile]	0.036 µM	0.002 µM
Cc1nc(F)ccc1C(Nc1cc(Cl)c2ncc(C#N)c(N[C@H](CCC#N)c3ccccc3)c2c1)c1cn(C2CC2)nn1 (stereo partly drawn) [Example 72, 8-chloro-4-(((R)-3-cyano-1-phenyl-propyl)amino)-6-(((1-cyclopropyl-1H-1,2,3-triazol-4-yl)(6-fluoro-2-methylpyridin-3-yl)methyl-d)amino)quinoline-3-carbonitrile]	–	0.001 µM
N#CCC[C@@H](Nc1c(C#N)cnc2c(Cl)cc(NC(c3cn(C4CC4)nn3)c3cccnc3Cl)cc12)c1ccccc1 (stereo partly drawn) [Example 73, 8-chloro-6-(((2-chloropyridin-3-yl)(1-cyclopropyl-1H-1,2,3-triazol-4-yl)methyl-d)amino)-4-(((R)-3-cyano-1-phenylpropyl)amino)quinoline-3-carbonitrile]	0.033 µM	0.002 µM
CC(C)(C)CNc1c(C#N)cnc2c(C#N)cc(N[C@H](c3cn(C4CC4)nn3)c3cccc4c3CNC4)cc12 [Example 79, (S)-6-(((1-cyclopropyl-1H-1,2,3-triazol-4-yl)(isoindolin-4-yl)methyl)amino)-4-(neopentylamino)quinoline-3,8-dicarbonitrile]	0.203 µM	0.001 µM
N#Cc1cnc2c(Cl)cc(N[C@@H](c3ccc(F)nc3)c3cn(C4CC4)nn3)cc2c1NC1C2CC3CC(C2)CC1C3 (stereo partly drawn) [Example 95, 4-(((1S,3S,5S,7S)-adamantan-2-yl)amino)-8-chloro-6-(((S)-(1-cyclopropyl-1H-1,2,3-triazol-4-yl)(6-fluoropyridin-3-yl)methyl-d)amino)quinoline-3-carbonitrile]	0.445 µM	0.01 µM
CC(C)(C)CNc1c(C#N)cnc2c(F)cc(N[C@@H](c3ccc(F)nc3)c3cn(C4CC4)nn3)cc12 [Example 119, (S)-6-(((1-cyclopropyl-1H-1,2,3-triazol-4-yl)(6-fluoropyridin-3-yl)methyl-d)amino)-8-lluoro-4-(neopentylamino)quinoline-3-carbonitrile]	0.099 µM	0.004 µM
CC(C)n1cc([C@@H](Nc2cc(Cl)c3ncc(C#N)c(Nc4ccc(F)c(Cl)c4)c3c2)c2cccn3cncc23)nn1 [Example 136, (S)-8-chloro-4-((3-chloro-4-fluorophenyl)amino)-6-((imidazo[1,S-a]pyridin-8-yl(1-isopropyl-1H-1,2,3-triazol-4-yl)methyl)amino)quinoline-3-carbonitrile]	0.291 µM	0.01 µM
CC[C@@H](Nc1c(C#N)cnc2c(Cl)cc(N[C@@H](c3cccnc3)c3cn([C@H](C)C(F)(F)F)nn3)cc12)c1ccccc1 [Example 190, 8-chloro-4-(((R)-1-phenylpropyl)amino)-6-(((S)-pyridin-3-yl (1-((R)-1,1,1-trifluoropropan-2-yl)-1H-1,2,3-triazol-4-yl)methyl)amino)quinoline-3-carbonitrile]	0.238 µM	–
N#Cc1cnc2c(Cl)cc(N[C@@H](c3c[nH]nn3)c3cc4c(s3)CN(C3COC3)CC4)cc2c1Nc1ccc(F)c(Cl)c1 [Example 269, (S)-8-chloro-4-((3-chloro-4-fluorophenyl)amino)-6-(((6-(oxetan-3-yl)-4,5,6,7-tetrahydrothieno[2,3-c]pyridin-yl)(1H-1,2,3-triazol-4-yl)methyl)amino)quinoline-3-carbonitrile]	0.326 µM	0.006 µM
CC[C@@H](Nc1c(C#N)cnc2c(C#N)cc(N[C@H](c3cn(C4CC4)nn3)c3cccc4c3CNC4)cc12)c1ccccc1 [Example 428, 6-(((S)-(1-cyclopropyl-1H-1,2,3-triazol-4-yl)(isoindolin-4-yl)methyl)amino)-4-(((R)-1-phenylpropyl)amino)quinoline-3,8-dicarbonitrile]	0.069 µM	0.001 µM
